# Measurements: the supplement of paper PMC11417369
# The other results are listed elsewhere or left out.
# System: PfSIP2 AP2 domain 1 (GST-tagged)
# Assay: gcPBM binding intensity (ln(normalized median fluorescence intensity)); higher = stronger DNA binding
# Outline: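 Each value is the highest Masliner-normalised natural-log median intensity across replicate spots of either orientation of a probe. The probes were primer-extended double-stranded 36-bp intergenic genomic sequences on an Agilent 4 × 180k array, alongside negative controls, exposed for 1 h to GST-tagged P. falciparum DNA-binding domains expressed in E. coli. Bound protein was picked up with Alexa488 anti-GST antibody and scanned at 488 nm.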
row,Sequence,gcPBM binding intensity (ln)
1,AAAAGATTTATACATACACACATATTATAGTCACAT [CACACA_site7701],7.02
2,TTTGTTTTAAATATTATACACACGTAAAAGTAGAAT [CACACA_site214],7.43
3,GGAAACCTTTTTTTTACACACAATATATTAATACTT [CACACA_site1403],7.06
4,TACACCCTATTTTTATGTACTTATTTGATTTACACA [XGTACX_site8172],7.29
5,ATATAAATACGGTGTGCACACACATAATATATATAT [CACACA_site2271],8.98
6,CAAATTTAAAAAAAATCACACACAGAAAAAAAAAAA [CACACA_site8728],6.78
7,CAAGAAAATGGACACACACACATATATATATATATA [CACACA_site6010],9.18
8,TGTATACGCATATGTACACACATATATATGTATATG [CACACA_site3087],7.25
9,GTGTAATTATCAGCATAAATATGGTACATACATAAA [CACACA_negctrl_site323],7.22
10,TATACGAAATTGTGCACACATATATTTATGTATGTA [CACACA_site1509],9.13
11,AATACATAATAACATGTACACACATTCTTCTATAAA [CACACA_site9344],7.08
12,TTAAAAGAATATAATGCACACATTATTTTATTTTAT [CACACA_site3772],7.03
13,AAAAAAAACGAACACACACACATACAAAATCTATAT [CACACA_site6795],7.24
14,TACCCACGTATATATATACACACTAATATACACCCA [CACACA_site9381],7.22
15,TTAAATGAAAAAATATGTACGTATAATAAGAAATAT [XGTACX_site6619],7.28
16,GTATGAGTCGTAGAGTGTACTCTGGAGAAAACTACA [XGTACX_site4942],6.97
17,TTTTTTCTTAGTTATACATGCAAAATAAATAAATAA [TGCATGCA_site410],7.13
18,TATTTTTTCTTAAACACACACATATATATATAGAAT [CACACA_site2836],7.17
19,ATTTATATATAATTTTGTACGAAAAAAATAAGGTAT [XGTACX_site3578],7.42
20,TATATATTTATTAAATGTACATAACAAAAATGGTAT [XGTACX_site3577],7.41
21,TGCATACATAAATGTATATATTAATATATATCATAT [GTGCAC_negctrl_site252],6.96
22,AAATAAAGTAAAATATGTACATAAATTAAAACACAT [XGTACX_site8539],7.94
23,TATATTAAACATATATGTACATATTTTTTCTGAACA [XGTACX_site5390],7.06

row,Sequence,gcPBM binding intensity (ln)
1,TATTGTTTTTTTGATTTTTTTTTTTTTTTTAATGAA [CACACA_negctrl_site824],6.67
2,ACCAAATCATATATAGCACACAAATTCTTTATTATT [CACACA_site8911],7.13
3,AATATTTTCTGTAATACTTCTTTTCAATTTATTTCG [CACACA_negctrl_site1390],6.94
4,AATATCAATGATGTTACATGCAAGAGAATCCACAAA [TGCATGCA_site678],7.09
5,ACGTAAAATTATTATTGTACATGTAAATAATTTGGA [XGTACX_site8154],6.9
6,ATTTACATTCACTTATGTACTTATATAATTTTATTT [XGTACX_site8150],7.11
7,TAACTCCACAAATAATGTACATATATCACTATATTT [XGTACX_site4911],7
8,AATGTATAATTATAATGTACAAATAATATATAATAT [XGTACX_site5407],7.17
9,TATATAATATATATTTTATATTTGTAATAATTTTTT [GTGCAC_negctrl_site497],6.89
10,TACATATGAAAATACACACATACATACATATATATA [CACACA_site1673],7.4
11,CAAAATATAGATGACACACACAAAAAAAGTATATTA [CACACA_site6848],6.75
12,AGATAAAAAAAGTACACACACACATATATATATATA [CACACA_site3072],9.26
13,AAGCTTCCTTAATATACACACATATCTGAGTATATT [CACACA_site5939],6.84
14,CATTTACCCTTATTAACACACAAAATATAATACGCT [CACACA_site2565],7.21
15,ATAGAAAGTGACAATTGTACATACATATTATATATA [XGTACX_site4390],7.49
16,TTCTTGGAATACAAGTGTACTTTATTATTATTATTA [XGTACX_site5997],7.25
17,AAAAAAAAAAAAAAAAAAAAATTTCAATTATATTGA [GTGCAC_negctrl_site642],8.1
18,TTTTTTTTTGCCTACTGTACTATTTTTGAGCTCACC [XGTACX_site7967],6.99
19,AAAATTATAATATATACACACATATATATATTAAAT [CACACA_site473],6.99
20,TTTTTTTTTTTTTGGTGTACCATAGGTAAAATGATT [XGTACX_site8020],7.2
21,ATTTATGGAAAAAGAACACACAATCAAACAAAAATA [CACACA_site3707],7.06
22,ATATAAATGAATATATGTACATATATATATATATAT [XGTACX_site6361],9.12
23,TGACCTGTTCAGGTAACACACATATAAACCCATACA [CACACA_site31],7.1

row,Sequence,gcPBM binding intensity (ln)
1,ATGCTATAGGATCTTACACACATTTTTGTAAAAAAA [CACACA_site1868],7.01
2,TATATATATATATATGTGCACTGAAAGAATTATACA [GTGCAC_site9586],10.3
3,TTTTTCTAATTATGCACACATATCAAAATATTCAAT [CACACA_site2749],9.18
4,GCTCAATTTTTGGGTACACACAAATGTATAAGAATA [CACACA_site7178],7.18
5,ATATATATAGAAATATGTACGAAAAAAATATCACAT [XGTACX_site746],7.63
6,TATTTATTTTATATATGTACATAATATATTCTTATA [XGTACX_site1619],7.05
7,AAAATCAAAAAAACAAGTACAAATGTGGACTTTTTT [XGTACX_site5363],6.65
8,TGTTCTATGGTTTGTAGTACTTTAATAAATATAAAT [XGTACX_site7823],7.44
9,AATAAGCTCACGTGTCGTACATTTTTTAAAACAACC [XGTACX_site4707],7.23
10,TCAAAAAAAAAAAAAAAAAAAAAAAAAAAAAAAAAA [CACACA_negctrl_site1753],7.27
11,AAGAACTCATTAATAATGTAATATTTTATAATTTAG [CACACA_negctrl_site321],6.55
12,ATAATAAAACTCAAAGTGCATTAGAATAATTGTAAA,7.65
13,ATTCATAAATATATTTGTACATATTATATATAAATA [XGTACX_site1907],7.25
14,TATACATATTTCTATTGTACATAAACTAAATCTTCA [XGTACX_site28],6.86
15,ACAATAAATATGTGGTTGCACTTATAATATATTTAT,7.81
16,TAATATATAACGTGCACACACACATTTACGTATGAA [CACACA_site1832],9.88
17,AGCACCCACCAACACACACACACACCCACCCACCCA [CACACA_site8011],7.8
18,TACAATTGTAAAGGCGCACACATATATATATATATA [CACACA_site1392],9.39
19,GATATTATTGCATATTTACACACGTACTAATTTAAA [CACACA_site8231],7.76
20,TTTTTATAATAAAAAAATATAACTATATTAAGCCAC [CACACA_negctrl_site555],7.1
21,TATTTTTATCAATTCACACATAAATATATTTATATG [CACACA_site5547],7.07
22,CACAGTGATATAAAAACACACATGAATTAAAATTTC [CACACA_site4999],6.92
23,CATACATACAGACACACACACATATTTATATTTATA [CACACA_site6172],7.5

row,Sequence,gcPBM binding intensity (ln)
1,GTTAATTATTAAATTTGTACTCATATATATTATATA [XGTACX_site6862],7.34
2,TCCCTTAATTTTGTGTGTACATATAATATATTTTTA [XGTACX_site2789],7.09
3,GGAATAGTGATATATACACACAAATACATATTTATA [CACACA_site6183],6.98
4,AATTAATAAGAAAGGTGTACAGAAAAAAAAAAATAT [XGTACX_site2106],7.42
5,AATATATAGGAAAAAGTGCAATAAATGAACAAAATA,7.56
6,TTTAATAAAATTCTAGTGCAAAAAGGAAAAAACAAA [GTGCAC_site9642],7.93
7,AATTTTGATATATATTGTACGCATTTTTAAATGCCA [XGTACX_site7694],6.99
8,AAAAGAAATGACAAATTGGATAGATAATAGGGGGTA [GTGCAC_negctrl_site262],7.04
9,TTCTTAATTTAAAATTGTACTTAAGTAATACTTATG [XGTACX_site3928],6.83
10,GAAGTTTTTTAAAGATGTACTTTTTAAAAATAATGT [XGTACX_site1975],7.28
11,TTATTTACTTATTGCACACATATAAAATATATTTAT [CACACA_site3101],7.74
12,AAAAAAAAAAAAAATACACACATATATAAATAAATA [CACACA_site6459],7.1
13,TATACATATGTATGCACACATACATACCCATATAAT [CACACA_site5842],7.11
14,CTATATATAAAATATTGTACTTATTTTTATTACATC [XGTACX_site3963],7.21
15,TTTTCTCAATTTTGGTGTACTTTTTTCTTAACACAT [XGTACX_site8918],7.29
16,TATTTAAAATATTAAATTTGTAAAGTTCGAGGGAAG [GTGCAC_negctrl_site337],7.19
17,GAAAAAAAAATATCTTGTACTTACATAACTATTGGT [XGTACX_site5326],7.04
18,AAAGGTTTATCTGATACACACATAAGTGATCAGGTT [CACACA_site6233],6.76
19,TAAATTAAAAAACATAAACTATTGGAAACGCATTGA [CACACA_negctrl_site935],6.74
20,ACACAATAAACATTATGTACATATAATGTTCTGTGT [XGTACX_site3381],6.95
